Reference: the supplement of paper PMC3334620
In all, about 33,000 sequences were measured (“E-score (-0.5 to 0.5)”: median about -0.01, highest 2% from about 0.26 on). The list shows a part of the results.

target: Ste12 (UniProt P13574); test: PBM E-score (8-mer binding enrichment) (E-score (-0.5 to 0.5)); higher = stronger / more preferred TF binding; most listed sequences are background and not binding sites; details: protein concentration: 200 nM; construct: GST-DNA-binding domain
Procedure, shortened: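 The E-score, a modified Wilcoxon-Mann-Whitney statistic, was computed by the Universal PBM Analysis Suite for every ungapped eight-base word pooled with its reverse complement. Scans behind it were normalised with masliner after bound GST-tagged yeast transcription factors were detected with fluorescent anti-GST. The proteins, at about 100-200 nM, had been applied to universal all-10-mer Agilent arrays made double-stranded by primer extension.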

Row | Sequence | PBM E-score
1 | ATGTCCTC | -0.0515
2 | ACCATGCG | -0.063
3 | GGGTCGCA | 0.184
4 | ATCGCCAA | -0.138
5 | CAGTGTGA | 0.0235
6 | CGATGTGC | -0.097
7 | GTCAACGA | -0.109
8 | CGACCTGC | -0.0774
9 | AAGATGAA | 0.18
10 | ACCCCTAT | 0.00239
11 | AGTATCCA | -0.0382
12 | ATCAAGAA | 0.202
13 | CAACCTCC | -0.0635
14 | ATGCCTAG | -0.0736
15 | TAACGCCA | 0.0882
16 | TGATTACA | -0.00637
17 | AGCTACTG | -0.00093
18 | AGTGGAAG | -0.306
19 | ATGAACTG | 0.175
20 | CCCGACTC | 0.0124
21 | GATTGTTA | -0.0146
22 | CCAGTAGC | 0.0741
23 | CCTCAGCG | -0.13
24 | AACGAGCT | -0.117
25 | AAACCTTC | -0.0506

Row | Sequence | PBM E-score
26 | CTGTATGA | 0.0532
27 | ACGTAGAG | -0.288
28 | TAACTACA | -0.0145
29 | CAAAACAC | 0.191
30 | CACCCTCC | 0.213
31 | CGATCCGA | -0.0155
32 | CTGCGCAA | -0.0942
33 | CACCCTGA | -0.00848
34 | GACAGGAA | 0.0114
35 | ACCATTCT | -0.00079
36 | GTGCGTTA | 0.156
37 | TGATACAA | 0.339
38 | GATGGCCA | -0.0587
39 | ACTCCCAC | -0.115
40 | TGGAATAA | 0.0344
41 | ATAGGAGG | -0.0464
42 | GCTCGCTA | -0.0187
43 | AGTACCAT | -0.133
44 | AGTGAGAA | 0.204
45 | AAACCTCG | 0.0455
46 | ACAGTCCT | 0.0491
47 | ATCCTCAC | 0.186
48 | ATTGAAGA | 0.00866
49 | AATTCACT | 0.101
50 | AGCGCGCG | 0.147

Row | Sequence | PBM E-score
51 | CGACCGTC | -0.173
52 | ACAACCGA | 0.122
53 | ATTATGCC | 0.0896
54 | CAGACATG | 0.0575
55 | AGCTACCC | -0.277
56 | GCGGCCAC | -0.113
57 | CGGTCGCC | -0.184
58 | CTACACCC | -0.094
59 | GAGATTAC | 0.0211
60 | CGCACGGA | -0.0302
61 | TCGCACCA | 0.156
62 | CGTGTAAC | 0.0271
63 | ATCCCTCC | -0.0296
64 | TAGCTTGA | -0.0554
65 | TAGTGCGA | 0.0187
66 | CCCTCGCG | -0.0522
67 | GACGAAGA | -0.139
68 | ATAATTGA | 0.206
69 | CTGAGGGC | -0.236
70 | ATAAATAT | 0.172
71 | CGGTATCC | -0.11
72 | ACCACACT | 0.0251
73 | TTACCCAA | 0.0694
74 | CACAATCA | -0.0771
75 | GGATACAC | -0.298

Row | Sequence | PBM E-score
76 | AGACGCAT | 0.0588
77 | CCATAAAG | -0.0569
78 | ATCTTGCC | 0.0302
79 | ATCCGCAC | 0.154
80 | TCCTCGAA | 0.0457
81 | GAAAATTC | 0.13
82 | GACTTAGC | -0.146
83 | ACTTGTAG | -0.111
84 | ACCTCGGC | 0.0975
85 | ACAGTGCC | -0.0356
86 | CGTAAGGC | -0.206
87 | CGTTCGCC | -0.0565
88 | CAGGGGAA | -0.0529
89 | GAACCGCC | -0.0508
90 | TCCCCGGA | -0.0463
91 | CTAGTTTC | 0.235
92 | ACCCGAAT | 0.0189
93 | AATTTTTC | 0.181
94 | CGCACTCC | -0.0593
95 | CTGATAAC | -0.00387
96 | ATCTAAAA | 0.285
97 | CCTAATGC | -0.204
98 | ACGGAGCC | -0.131
99 | AGGCGTAC | -0.239
100 | AACGGACA | 0.00811

Row | Sequence | PBM E-score
101 | TAATACTA | 0.144
102 | ACTGACTG | -0.122
103 | CTCAGTTC | -0.0827
104 | AGGCACGG | -0.038
105 | CACACCTG | 0.00651
106 | ATAATGAG | 0.074
107 | GCCTACCA | -0.148
108 | ATCCCTTA | -0.0888
109 | TCTTCAAA | 0.194
110 | CCATGCTA | -0.13
111 | ATCTGTCG | 0.106
112 | GCCGTCTA | 0.0432
113 | CATGTTGA | 0.212
114 | GCATAGTA | 0.147
115 | AAGACGTG | -0.0629
116 | AGATTGAT | -0.0801
117 | AACCAGTA | 0.0683
118 | GTGCATGA | -0.0676
119 | ACCATAGA | -0.00452
120 | CTCATCGC | -0.0762
121 | CGTCGATC | 0.0822
122 | CTAACAAA | 0.0819
123 | TACACACA | 0.0194
124 | GCTAACAA | -0.046
125 | GGCGTGCA | -0.24

Row | Sequence | PBM E-score
126 | AAGTCTTA | -0.21
127 | GTAACAAC | 0.15
128 | AAACTGAT | 0.217
129 | GTGTGATA | 0.122
130 | AGGTTTAT | 0.191
131 | TACCCTAA | 0.172
132 | GTGCAACA | -0.182
133 | CGGGGAAA | 0.272
134 | TGCCATAA | -0.045
135 | GAAGTAAC | 0.227
136 | CACTTACC | 0.151
137 | AGTAGAAA | 0.297
138 | CGATGTTA | 0.0845
139 | CCTGTGCG | 0.0113
140 | CAACTTAA | 0.0143
141 | AAGGAGCG | -0.0809
142 | GACGTTAC | 0.0153
143 | GTCTGGAA | -0.0656
144 | ATGATCGA | 0.0887
145 | ACGGATCC | -0.184
146 | CAATGTGC | -0.133
147 | GATATGCA | 0.00486
148 | AATTCACC | 0.182
149 | GATATCCC | 0.0374
150 | AAGATGGC | -0.0333

Row | Sequence | PBM E-score
151 | GCGACATA | -0.00576
152 | AGGGTACC | -0.216
153 | GATCGTAC | -0.118
154 | AAGGTCCG | -0.06
155 | GATTCGCC | -0.0424
156 | CAGTTTCC | 0.0749
157 | CGCCAGTA | -0.0871
158 | CCCTACAA | 0.104
159 | GGAGGGTA | 0.116
160 | TGGCCAAA | 0.0505
161 | ACCACCTC | -0.101
162 | AGTCGTCA | -0.127
163 | GGCAAAAA | 0.346
164 | AAAACGCG | 0.285
165 | AACATTTG | -0.0207
166 | CTAGCTTC | -0.0909
167 | ACATCTCT | 0.0158
168 | TACCAACA | 0.0881
169 | TCTGTGCA | -0.0103
170 | TGGAGAAA | 0.00653
171 | GCCTGACA | -0.172
172 | CTATCTAC | -0.166
173 | CCAATCTA | 0.148
174 | AATCCCGC | 0.209
175 | AGTAAGTC | -0.162

Row | Sequence | PBM E-score
176 | CTTCCCTC | -0.0689
177 | ACCTCCCT | 0.0158
178 | ACGCCACA | 0.00496
179 | CTGTAAAC | 0.00821
180 | TAGAGGGA | -0.0829
181 | CGTATACC | -0.168
182 | CGAATACG | 0.00684
183 | CAACCTCG | -0.0812
184 | CGGCATCC | -0.0858
185 | AAGCAGGT | 0.0339
186 | ACCGGAGC | 0.0323
187 | AGTTATAC | 0.0403
188 | ACCGAGAC | 0.023
189 | GAGCCGCC | -0.0855
190 | CTGTCCCA | -0.0918
191 | CTCGTCAA | -0.0254
192 | GTTCGCGA | 0.00152
193 | ACTAAGAC | -0.214
194 | AGATTACA | 0.0641
195 | GCTAAACC | -0.0644
196 | GAGAGCAA | -0.114
197 | AGCTTTAA | 0.0779
198 | GAATCGTA | -0.0071
199 | CCTCAGCC | -0.173
200 | GGTCAACC | -0.0374

Row | Sequence | PBM E-score
201 | AGAGGAGG | -0.166
202 | ATACGCCA | 0.154
203 | CACGCCCA | -0.00122
204 | CGGCGGGA | 0.00826
205 | AAGGAATA | 0.0814
206 | CAACCGTG | -0.181
207 | CCCACATC | -0.0169
208 | ACGAGTAC | -0.172
209 | GAGGTGAA | 0.0655
210 | CCAAAGAG | 0.147
211 | TCGTATAA | 0.0638
212 | AAATAACC | 0.0194
213 | AATTTTGG | 0.104
214 | CCCTCCGG | -0.195
215 | GGCCGAAC | -0.0163
216 | CGTCGAAA | 0.12
217 | GCTTCAAC | -0.025
218 | GCATGTCA | 0.054
219 | CTCATGGC | -0.0134
